Data published in PubChem BioAssay (NCATS).
The inconclusive results got no clear call from the source; some entries with a clear call stand among them for comparison. Where the call is inconclusive, the potency comes from a doubtful curve fit. Calls of active or inactive are those of the source. Calls come from the whole dose curve; as a rule, active = well fitted inhibition curve with a large enough effect; inconclusive = small, poorly fitted or top-dose-only effect; inactive = no such curve, though single readings can be large or run the other way.

target: Cytochrome P450 2C9 (Homo sapiens) (UniProt P11712); experiment: qHTS Assay for Inhibitors and Substrates of Cytochrome P450 2C9 (AID 883); conditions: recombinant CYP2C9, luciferin-H luminescence, 60 min; series mostly up to 11.4 µM; note: nearly all actives have a fitted effect of over 60% in size
UniProt P11712, sequence (P11712 whole entry, looked up): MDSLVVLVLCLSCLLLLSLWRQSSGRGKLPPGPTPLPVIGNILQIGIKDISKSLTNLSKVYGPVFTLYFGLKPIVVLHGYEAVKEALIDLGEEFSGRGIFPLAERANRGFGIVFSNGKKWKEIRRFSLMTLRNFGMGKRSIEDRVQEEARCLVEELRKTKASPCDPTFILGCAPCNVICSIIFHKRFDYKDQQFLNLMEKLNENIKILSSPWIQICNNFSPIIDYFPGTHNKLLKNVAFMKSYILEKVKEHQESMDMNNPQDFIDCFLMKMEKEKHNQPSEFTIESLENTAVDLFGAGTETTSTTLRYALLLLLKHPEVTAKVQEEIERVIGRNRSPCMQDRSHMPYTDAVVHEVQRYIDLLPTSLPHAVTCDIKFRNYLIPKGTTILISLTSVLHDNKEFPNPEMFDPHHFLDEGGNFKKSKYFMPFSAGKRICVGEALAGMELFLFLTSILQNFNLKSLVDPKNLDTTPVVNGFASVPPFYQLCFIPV
Summary of the method: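 Inhibition of CYP2C9 is scored as loss of luminescence, with 57uM sulphaphenazole defining 100% inhibition. Substrate Luciferin-H is used at 100uM, equal to its KM; enzyme at 10nM in 25mM KPO4, 60 min at 37C with NADPH regeneration.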
Potency is the fitted concentration of half-maximal effect; tags give direction and shape of the fitted curve.

Row | SMILES | Potency
1 | Cc1nn(C)c(Cl)c1S(=O)(=O)N[C@@H](c1ccccc1)[C@]1(C)C[C@H]1[C@@H](C)C(=O)Nc1ccc2ccccc2c1 | inconclusive: 6.31 µM [inhibitor, full curve]
2 | O=C(O)c1ccc(/C=N\N=C2c3ccccc3-c3ccccc32)cc1 | inconclusive: 7.94 µM [inhibitor, single point]
3 | CCC/C=C(\CCC)C(NC(=O)c1cccs1)c1ccc(C(=O)OC)cc1 (stereo unspecified) | active: 2 µM
4 | CCCC[C@@H]1C[C@H]1C(NC(=O)c1ccccc1)c1ccc(Cl)cc1 (stereo partly specified) | inconclusive: 2.51 µM [inhibitor, full curve]
5 | Clc1ccc(CSCCc2ccncc2)cc1Cl | active: 0.0794 µM
6 | COc1ccc2c(c1)[C@]1(C)CCC[C@](C)(CO)[C@@H]1CC2 | active: 7.94 µM
7 | Oc1ccc2ccccc2c1CN(Cc1c(O)ccc2ccccc12)C1CCCCC1 | inconclusive: 7.94 µM [inhibitor, single point]
8 | Nc1cccc2cc(S(=O)(=O)Nc3ccc(C(=O)O)cc3)ccc12 | inconclusive: 7.94 µM [inhibitor, single point]
9 | COc1ccc2c(=O)cc(-c3ccccc3)oc2c1O | active: 15.8 µM
10 | CCC/C=C(\CCC)C(NC(=O)c1cccs1)c1ccc(C(F)(F)F)cc1 (stereo unspecified) | inconclusive: 0.501 µM [inhibitor, full curve]
11 | CCCC[C@@H]1C[C@H]1C(NC(=O)c1ccccc1)c1ccccc1 (stereo partly specified) | active: 7.94 µM
